# Laboratory results from the supplement of paper PMC12217912.
# The list shows a part of the results. The full chains were built here from the parent and the listed change. Inactive controls read about 0.05.
# B1: TEV protease; numbered along this chain (parent)
# chain: MGESLFKGPRDYNPISSSICHLTNESDGHTTSLYGIGFGPFIITNKHLFRRNNGTLVVQSLHGVFKVKDTTTLQQHLVDGRDMIIIRMPKDFPPFPQKLKFREPQREERICLVTTNFQTKSMSSMVSDTSCTFPSGDGIFWKHWIQTKDGQCGSPLVSTRDGFIVGIHSASNFTNTNNYFTSVPKNFMELLTNQEAQQWVSGWRLNADSVLWGGHKVFMVKPEEPFQPVKEATQL
# Variants of: B1
# Assay: raw area under fraction-flipped curve 0-4 h after induction (AUC4h, not background-subtracted), DNA-recorder readout of cleavage of the substrate (dimensionless); higher = more cleavage of the substrate by the protease variant
# Settings: temperature: 34 °C; time window: 0-4 h after rhamnose induction
# Method: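 In vivo DNA recorder in E. coli TOP10(DE3) ΔrhaA at 34 °C. Each TEVp single-site mutant (parent TEVp 0) is paired with a single-site variant of the 7-mer TEVs (canonical ENLYFQ|S). The substrate sits between flexible linkers in a Bxb1-sfGFP-TEVs-SsrA fusion, so cleavage stabilises Bxb1 and speeds flipping of a recombination array, read by NGS. The value is the raw area under the fraction-flipped curve over 0-4 h after rhamnose induction (AUC4h), with ≥20 reads per time point. It is not background-subtracted; inactive controls average about 0.047.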
# 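Also: Bxb1 expression induced with 0.2% (w/v) L-rhamnose at OD600 near 0.5, cultures sampled hourly, flipped fraction per protease–substrate barcode pair counted by paired-end Illumina sequencing.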
variant,measurement,value
Q197S,area with substrate ENLYFQC,0.105
same,area with substrate ENLYFQD,0.0667
same,area with substrate ENLYFQG,0.105
same,area with substrate ENLYFQI,0.0568
same,area with substrate ENLYFQK,0.0432
same,area with substrate ENLYFQL,0.0639
same,area with substrate ENLYFQM,0.055
same,area with substrate ENLYFQN,0.0604
same,area with substrate ENLYFQR,0.0685
same,area with substrate ENLYFQS,0.0912
same,area with substrate ENLYFQT,0.061
T119P,area with substrate ENLYFQC,0.116
same,area with substrate ENLYFQD,0.067
same,area with substrate ENLYFQE,0.0545
same,area with substrate ENLYFQK,0.0723
same,area with substrate ENLYFQM,0.0941
same,area with substrate ENLYFQN,0.0733
same,area with substrate ENLYFQP,0.073
same,area with substrate ENLYFQS,0.0961
same,area with substrate ENLYFQT,0.0635
same,area with substrate ENLYFQW,0.0731
L211K,area with substrate ENLYFQA,0.0897
same,area with substrate ENLYFQF,0.0508
same,area with substrate ENLYFQH,0.0658
same,area with substrate ENLYFQK,0.0667
same,area with substrate ENLYFQL,0.0807
same,area with substrate ENLYFQM,0.104
same,area with substrate ENLYFQN,0.0659
same,area with substrate ENLYFQP,0.0665
same,area with substrate ENLYFQQ,0.0753
same,area with substrate ENLYFQS,0.094
same,area with substrate ENLYFQT,0.072
same,area with substrate ENLYFQW,0.0671
same,area with substrate ENLYFQY,0.0699
K221H,area with substrate ENLYFQA,0.124
same,area with substrate ENLYFQC,0.117
same,area with substrate ENLYFQD,0.0897
same,area with substrate ENLYFQG,0.0973
same,area with substrate ENLYFQH,0.0683
same,area with substrate ENLYFQK,0.0585
same,area with substrate ENLYFQL,0.0554
same,area with substrate ENLYFQM,0.0667
same,area with substrate ENLYFQN,0.0738
same,area with substrate ENLYFQP,0.0641
same,area with substrate ENLYFQQ,0.0729
same,area with substrate ENLYFQR,0.0572
same,area with substrate ENLYFQS,0.101
same,area with substrate ENLYFQW,0.0485
same,area with substrate ENLYFQY,0.0571
F187W,area with substrate ENLYFQA,0.079
same,area with substrate ENLYFQC,0.102
same,area with substrate ENLYFQD,0.063
same,area with substrate ENLYFQG,0.075
same,area with substrate ENLYFQH,0.0643
same,area with substrate ENLYFQK,0.0719
same,area with substrate ENLYFQL,0.057
same,area with substrate ENLYFQM,0.0654
same,area with substrate ENLYFQN,0.0548
same,area with substrate ENLYFQP,0.0742
same,area with substrate ENLYFQR,0.0554
same,area with substrate ENLYFQS,0.0787
same,area with substrate ENLYFQT,0.0629
same,area with substrate ENLYFQW,0.0665
same,area with substrate ENLYFQY,0.0734
T44V,area with substrate ENLYFQA,0.079
same,area with substrate ENLYFQC,0.0855
same,area with substrate ENLYFQD,0.0439
same,area with substrate ENLYFQF,0.062
same,area with substrate ENLYFQH,0.056
same,area with substrate ENLYFQI,0.0455
same,area with substrate ENLYFQK,0.0649
same,area with substrate ENLYFQL,0.0657
same,area with substrate ENLYFQM,0.0627
same,area with substrate ENLYFQN,0.0798
same,area with substrate ENLYFQP,0.0521
same,area with substrate ENLYFQQ,0.0634
same,area with substrate ENLYFQS,0.0774
same,area with substrate ENLYFQT,0.0706
same,area with substrate ENLYFQW,0.0655
S121R,area with substrate ENLYFQA,0.092
same,area with substrate ENLYFQC,0.132
same,area with substrate ENLYFQD,0.0682
same,area with substrate ENLYFQG,0.0875
same,area with substrate ENLYFQH,0.0836
same,area with substrate ENLYFQI,0.0644
same,area with substrate ENLYFQK,0.0583
same,area with substrate ENLYFQL,0.0599
same,area with substrate ENLYFQM,0.0847
same,area with substrate ENLYFQN,0.0597
same,area with substrate ENLYFQP,0.0446
same,area with substrate ENLYFQQ,0.0723
same,area with substrate ENLYFQR,0.061
same,area with substrate ENLYFQS,0.117
same,area with substrate ENLYFQT,0.0668
same,area with substrate ENLYFQV,0.0362
same,area with substrate ENLYFQW,0.067
V58E,area with substrate ENLYFQC,0.0507
same,area with substrate ENLYFQG,0.0539
same,area with substrate ENLYFQM,0.0461
same,area with substrate ENLYFQN,0.0338
same,area with substrate ENLYFQP,0.0435
same,area with substrate ENLYFQS,0.0458
G214Q,area with substrate ENLYFQA,0.0944
same,area with substrate ENLYFQG,0.0705
same,area with substrate ENLYFQS,0.0871
same,area with substrate ENLYFQV,0.0689
same,area with substrate ENLYFQW,0.0571
Q59T,area with substrate ENLYFQA,0.108
same,area with substrate ENLYFQC,0.104
same,area with substrate ENLYFQD,0.0845
same,area with substrate ENLYFQF,0.0607
same,area with substrate ENLYFQG,0.0957
same,area with substrate ENLYFQI,0.0595
same,area with substrate ENLYFQL,0.0513
same,area with substrate ENLYFQP,0.0384
same,area with substrate ENLYFQR,0.0567
same,area with substrate ENLYFQS,0.104
same,area with substrate ENLYFQT,0.0617
same,area with substrate ENLYFQW,0.0684
same,area with substrate ENLYFQY,0.0698
F49S,area with substrate ENLYFQC,0.0471
same,area with substrate ENLYFQF,0.0497
same,area with substrate ENLYFQG,0.0626
same,area with substrate ENLYFQH,0.0424
same,area with substrate ENLYFQI,0.0467
same,area with substrate ENLYFQK,0.062
same,area with substrate ENLYFQL,0.0459
same,area with substrate ENLYFQM,0.0538
same,area with substrate ENLYFQR,0.0532
same,area with substrate ENLYFQS,0.0604
same,area with substrate ENLYFQT,0.0567
same,area with substrate ENLYFQW,0.047
Q234C,area with substrate ENLYFQA,0.0893
same,area with substrate ENLYFQC,0.0905
same,area with substrate ENLYFQD,0.0703
same,area with substrate ENLYFQE,0.0706
same,area with substrate ENLYFQF,0.0775
same,area with substrate ENLYFQG,0.0864
same,area with substrate ENLYFQK,0.0721
same,area with substrate ENLYFQL,0.0589
same,area with substrate ENLYFQN,0.0802
same,area with substrate ENLYFQQ,0.0738
same,area with substrate ENLYFQR,0.039
same,area with substrate ENLYFQS,0.0978
same,area with substrate ENLYFQT,0.0691
same,area with substrate ENLYFQV,0.0728
same,area with substrate ENLYFQW,0.0712
same,area with substrate ENLYFQY,0.0979
Q234M,area with substrate ENLYFQC,0.123
same,area with substrate ENLYFQF,0.0514
same,area with substrate ENLYFQG,0.0432
same,area with substrate ENLYFQH,0.0785
same,area with substrate ENLYFQK,0.0655
same,area with substrate ENLYFQL,0.095
same,area with substrate ENLYFQM,0.0787
same,area with substrate ENLYFQN,0.0565
same,area with substrate ENLYFQP,0.064
same,area with substrate ENLYFQS,0.0919
same,area with substrate ENLYFQT,0.0572
same,area with substrate ENLYFQW,0.0949
D149H,area with substrate ENLYFQC,0.0837
same,area with substrate ENLYFQG,0.0948
same,area with substrate ENLYFQH,0.0639
same,area with substrate ENLYFQI,0.0401
same,area with substrate ENLYFQL,0.0544
same,area with substrate ENLYFQR,0.0368
same,area with substrate ENLYFQS,0.0755
same,area with substrate ENLYFQV,0.0416
same,area with substrate ENLYFQW,0.0495
